Results on 103 compounds are retold here after article PMC6919601, “Identification of Plasmodium dipeptidyl aminopeptidase allosteric inhibitors by high throughput screening” (PLoS ONE, 2019).

Hit rate of the full screen: of about 110,000 compounds, about 230 (0.21%) showed an effect of 50% or more. The list shows a part of the results.
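Further: 30 min substrate incubation versus DMSO and 10 µM JCP410 controls.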

DPAP1, sequence (Q8IIJ9 whole entry, looked up): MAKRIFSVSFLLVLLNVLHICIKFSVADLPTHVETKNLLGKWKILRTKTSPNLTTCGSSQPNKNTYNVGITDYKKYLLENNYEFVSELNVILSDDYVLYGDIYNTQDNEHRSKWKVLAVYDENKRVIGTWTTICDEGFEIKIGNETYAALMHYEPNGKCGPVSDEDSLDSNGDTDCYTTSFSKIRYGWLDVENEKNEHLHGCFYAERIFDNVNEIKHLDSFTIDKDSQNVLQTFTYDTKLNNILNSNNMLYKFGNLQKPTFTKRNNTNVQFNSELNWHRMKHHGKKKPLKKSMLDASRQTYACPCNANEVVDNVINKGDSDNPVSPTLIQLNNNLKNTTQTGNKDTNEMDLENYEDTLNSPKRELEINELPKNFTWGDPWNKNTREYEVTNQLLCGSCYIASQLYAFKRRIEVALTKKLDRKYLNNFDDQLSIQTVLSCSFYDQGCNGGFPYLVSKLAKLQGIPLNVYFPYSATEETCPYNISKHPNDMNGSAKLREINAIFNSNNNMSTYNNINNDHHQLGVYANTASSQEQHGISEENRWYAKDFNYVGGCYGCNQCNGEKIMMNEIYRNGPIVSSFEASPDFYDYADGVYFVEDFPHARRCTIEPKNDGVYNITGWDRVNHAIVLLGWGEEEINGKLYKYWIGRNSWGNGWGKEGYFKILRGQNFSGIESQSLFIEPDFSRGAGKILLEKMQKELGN

This assay concerns the target DPAP1 (Plasmodium falciparum, UniProt Q8IIJ9). Briefly: primary screen, percent inhibition; read by cleavage of a fluorogenic dipeptide substrate; higher = more effect of the substance. Set-up: species or system P. falciparum D10 trophozoite lysates; single well.
For the compound `CNc1ccc([N+](=O)[O-])c2cccnc12`, the “% Inhibition @ 10 uM” value is listed as -1.64%.
To `Cc1ccc(Cc2cncc(O)c2)cc1` belongs 2.94%; to `Cc1ccc(Cl)cc1N(CC(=O)Nc1ccc(F)cc1)S(C)(=O)=O`, -4.65%; to `Cc1ccsc1CN1CCCCC1CO` (stereo not shown), 1.83%.
Turning to `N#C/C(=C\c1cccs1)c1nc2ccccc2[nH]1`, the “% Inhibition @ 10 uM” value is given as -0.142%.
Regarding `CC(C)/N=C(\N)CCn1cnc2c1c(=O)n(C)c(=O)n2C`, the “% Inhibition @ 10 uM” value stood at 4.84%.
The same measure for `O[C@H]1CC[C@H](NC2CCN(Cc3ccccc3)CC2)CC1`: -1.81%; for `COc1ccc(CNCCc2c[nH]c3ccccc23)c(OC)c1C`: -1.6%.
For `O=C(CN1CCOCC1)N1N=C(c2ccc(Cl)cc2)CC1c1ccco1` (stereo not shown), the “% Inhibition @ 10 uM” value was -4.51%.
The same measure for `COc1ccc(C(=O)CC(=O)c2ccc(OC)c(OC)c2)c(O)c1`: 4.74%; for `OCCN1CCN(C2CCSC2)CC1` (stereo not shown): -3.6%.
To `CCCCN(C)CCNC(=O)CSCc1ccc(C)cc1` belongs -2.99%; to `N#Cc1sc2nc(-c3cccnc3)ccc2c1N`, -0.261%.
The same measure for `COc1ccc(CCN2C(=N)SC3CS(=O)(=O)CC32)cc1` (stereo not shown): -4.75%.
In the case of `COc1ccc(C2C3=C(O)CC(C)(C)CC3=Nc3ncnn32)cc1Br` (stereo not shown), the “% Inhibition @ 10 uM” value stood at 1.73%.
The same measure for `COc1ccccc1-c1c(C)nn2c(NCCc3ccc(C)cc3)cc(C)nc12`: -3.93%; for `COc1ccc(C2C(C#N)=C(N)N(c3ccccc3Cl)C3=C2C(=O)CCC3)cc1O` (stereo not shown): -4.76%.
To `Cc1ccccc1OCCCn1c(CCCO)nc2ccccc21` belongs 1.62%; to `Cc1sc2ncn(CC(=O)N3CCOCC3)c(=O)c2c1S(=O)(=O)N1CC(C)CC(C)C1` (stereo not shown), 1.5%.
The same measure for `CC1CCCC(NS(=O)(=O)c2ccc(CCN3C(=O)c4cccnc4C3=O)cc2)C1C` (stereo not shown): -8.4%; for `CP(=O)(O)c1nccn1-c1ccc(Cl)nn1`: 7.56%.
As for `COc1ccc(NC(=O)c2ccc(Cl)c(Cl)c2)cc1`, the “% Inhibition @ 10 uM” value amounted to 3.04%.
The same measure for `COc1cccc(C2NC(=O)NC(C)=C2C(=O)c2ccccc2)c1` (stereo not shown): -2.15%; for `CC(C)N(Cc1nc(-c2ccccc2)no1)C(=O)C(C)(C)C`: -5.91%; for `CN1C(=O)c2ccc(C(=O)NCc3cccnc3)cc2C1=O`: 0.161%.
The same measure for `CCOC(=O)c1cc(-c2ccc(C)cc2)n(CCC(=O)Nc2cccc(C)n2)c1C`: 0.0579%; for `CN(CC(O)c1ccccc1)CC1CC2C=CC1C2` (stereo not shown): -1.75%.
To `Cc1cc(OCCCc2c(C)n[nH]c2C)ccc1Cl` belongs -2.18%; to `Cc1cc(=O)n2nc(N3CCCC(C(=O)NCCC4=CCCCC4)C3)sc2n1` (stereo not shown), 4.55%.
For `Cc1cc(C)c2c(n1)sc1c3c(c(O)nc12)C(c1cccnc1)C(C#N)=C(N)O3` (stereo not shown), the “% Inhibition @ 10 uM” value was 4.28%.
The same measure for `CC(CCc1ccccc1)NC(=O)Nc1cccs1` (stereo not shown): -5.15%; for `CN(CC(=O)NC1CCCc2ccccc21)S(=O)(=O)c1cccc2nsnc12` (stereo not shown): 2%.
To `Cc1nc(S)c(C#N)c(-c2cccs2)c1C(=O)Nc1ccccc1` belongs 36.8%; to `Fc1ccccc1N1CC(c2ccccc2)C(c2cccs2)=N1` (stereo not shown), -3.8%; to `CCOC(=O)N1CCC(NC2CCCCCCC2)CC1`, -2.95%.
To `O=C(c1ccc(CS(=O)(=O)c2ccc(Br)cc2)o1)N1CCN(C2CCCCC2)CC1` belongs 2.35%.
`CC(=O)N1CC[C@@]2(O)CCCC[C@@H]2[C@H]1c1cc([N+](=O)[O-])ccc1O`: the “% Inhibition @ 10 uM” value is on record as -1.07%.
To `CC(=O)N1CCC(N2CCN(c3cccc(Cl)c3)CC2)CC1` belongs -3.5%; to `Cn1c(SCc2ccon2)nc2ccccc2c1=O`, 0.231%; to `CCOC(=O)c1c(C)oc2c1c(CN1CCN(CC)CC1)c(O)c1ccccc12`, 0.343%.
To `CCOC(=O)c1c(C)n(C)c2ccc(O)c(CN(CC)CC)c12` belongs -4.58%.
To `O=C(O)C1CC=CCC1C(=O)Nc1ccc(N2CCN(c3cccc(Cl)c3)CC2)cc1` (stereo not shown) belongs -0.95%; to `N#CC1=C(N)Oc2c(c(O)nc3nc(Nc4ccccc4)sc23)C1c1ccc(Cl)cc1` (stereo not shown), -1.6%; to `CC(=O)Nc1sc2c(c1C(=O)O)CCCC2`, -2.18%.
With `Cc1n[nH]c(C)c1CCCCCCOc1ccc(Br)cc1`, the “% Inhibition @ 10 uM” value is on record as 1.35%.
The same measure for `CCO/C=N/C1=C(C#N)C(c2ccc(Cl)cc2)C2=C(CC(C)(C)CC2=O)O1` (stereo not shown): -0.25%.
To `COc1cccc(-c2cc(C(F)(F)F)nc(-n3cc(C)c(=O)[nH]c3=O)n2)c1` belongs -7.15%; to `COc1ccc(NC(=O)COc2ccccc2OC)cc1`, 2.27%; to `CC1CCN(C(=O)c2cc(-c3ccc4c(c3)OCO4)on2)CC1`, -0.591%.
The same measure for `Cc1ccccc1OCC(=O)Nc1cc(N)cc(Oc2ccccc2)c1`: 3.17%; for `COc1ccccc1OCC(=O)N1CCN(c2ccccc2OC)CC1`: -3.04%; for `N#CCNC(=O)C(CCS(=O)(=O)c1ccccc1)CCS(=O)(=O)c1ccccc1`: -3.49%.
Regarding `CC(C)Sc1nc2ccc(N3C(=O)C4CCCCC4C3=O)cc2s1` (stereo not shown), the “% Inhibition @ 10 uM” value is reported as -4.8%.
The same measure for `Cc1sc(NC(=O)c2ccnn2C)c(C(N)=O)c1-c1ccc(Cl)cc1Cl`: -0.318%; for `COc1cccc(CNc2nc3ccc(Cl)cc3n3cnnc23)c1`: -2.25%.
The same measure for `O=C(O)C1C2C=CC(C2)C1C(=O)NCCCN1CCOCC1` (stereo not shown): -12.6%; for `Clc1ccc(-c2noc(CSc3nc4ccccc4[nH]3)n2)cc1`: 2.31%; for `CC1=CC(=C(C#N)C#N)C=C(C)N1CCO`: 0.587%.
The same measure for `CCOc1ccccc1C1C(C#N)=C(N)Oc2[nH]nc(-c3ccc4c(c3)OCO4)c21` (stereo not shown): -8.15%; for `COc1ccccc1CCNCc1c(C(=O)O)n(Cc2ccc(C)cc2)c2cc(C)ccc12`: 2.6%.
Regarding `O=C(NCC(=O)N1CCCCC1)c1ccccc1`, the “% Inhibition @ 10 uM” value was -1.98%.
To `CCSc1nc(-c2ccccc2)cc(-c2ccccc2OC)c1C#N` belongs -3.77%; to `CCOc1ccc(C(=O)C2=C(O)C(=O)N(c3nccs3)C2c2cccc(Oc3ccccc3)c2)cc1` (stereo not shown), -1.25%.
As for `Cc1cc(C)c2nc3s/c(=C\c4ccc(F)cc4)c(=O)n3c2c1`, the “% Inhibition @ 10 uM” value is 2.92%.
The same measure for `CC(=O)Nc1ccccc1SCC(=O)Nc1cc(C)c(C)cc1Br`: 1.17%; for `COc1ccc(C(=O)Nc2ccccc2C(=O)NCCCCO)cc1`: 1.59%.
The same measure for `O=C(O)CCc1ccc(-c2cccs2)n1NC(=O)c1ccccc1Br`: 4.74%; for `Cc1ccc(NC(=O)CN(c2cccc(Cl)c2)S(C)(=O)=O)cc1C`: 3.53%.
As for `O=C(/C=C/c1ccc(Cl)cc1)N1CCCCC1`, the “% Inhibition @ 10 uM” value is given as 4.54%.
The same measure for `Cc1ccc2nc3c(nc2c1)[nH]c1ccccc13`: 3.25%; for `N#CCNC(=O)[C@@H](Cc1ccco1)NC(=O)OCc1ccccc1`: 0.079%; for `O=C(Nc1ccc(F)cc1)/C(=C/c1ccccc1Cl)NC(=O)c1ccccc1`: -8.63%.
The same measure for `COc1ccc(C2=NN(c3ccccc3)CC2)cc1`: -6.25%; for `N=C1/C(=C\c2coc3ccccc3c2=O)C(=O)N=C2SC(C34CC5CC(CC(C5)C3)C4)=NN12`: -3.95%; for `CCC(=O)N1CC23C=CC(CC2CC12CCCCC2)O3` (stereo not shown): 19.4%.
To `CCCN1CCC(N2CCC(O)CC2)CC1` belongs 2.7%; to `CCc1ccc(S(=O)(=O)c2nnn3c2nc(N2CCN(C)CC2)c2sccc23)cc1`, 2.72%.
On to `COCCNC(=O)CC12CC3CC(C1)CC(CC(=O)NCCOC)(C3)C2`, for which the “% Inhibition @ 10 uM” value worked out at 1.84%.
Turning to `Cn1cc(/C=C2/CCC/C(=C\c3cnn(C)c3)C2=O)cn1`, the “% Inhibition @ 10 uM” value is -2.9%.
The same measure for `COc1ccc(CNC(=O)Cn2ncn3nc(-c4ccc(OC)cc4)cc3c2=O)cc1`: -3.08%; for `CCc1ccc(-n2nc(C)c3c(C(=O)O)cc(C)nc32)cc1`: 3.1%.
To `c1ccc(COc2ccccc2CNCc2cccnc2)cc1` belongs -4.52%.
On to `O=S(=O)(NCc1cccnc1)c1ccc2[nH]c3c(c2c1)CCCC3`, for which the “% Inhibition @ 10 uM” value is -6.17%.
The same measure for `Cc1c(O)c(S(=O)c2ccccc2)c(=O)n(-c2ccccc2)c1-c1ccccc1` (stereo not shown): -3.77%; for `CN(C)CCN(C)Cc1ccc(-c2ccccc2)cc1`: -4.3%.
The same measure for `COc1cccc(CNC(=O)CN2C(=O)CSc3ncccc32)c1OC`: -5.38%; for `COc1cccc(C(=O)N2c3ccccc3Sc3ccccc32)c1`: -4.21%; for `CCCc1ccc(OCC(O)CN2CCN(CC)CC2)cc1` (stereo not shown): 3.9%.
To `COC(=O)c1cc2sc(C)cc2n1Cc1nc(-c2ccc(OC)c(OC)c2)oc1C` belongs -8.57%; to `CC1=NN(c2ccccc2)C(=O)/C1=C\c1cccc([N+](=O)[O-])c1`, -0.999%.
As for `CCOc1cc(S(=O)(=O)NC2CC(C)(C)NC(C)(C)C2)ccc1Cl`, the “% Inhibition @ 10 uM” value amounted to 0.889%.
To `O=C(C1c2ccccc2C(=O)N(C2CCCC2)C1c1cccs1)N1CCC(N2CCCCC2)CC1` (stereo not shown) belongs 2.78%.
The same measure for `Cc1ccc(C(=O)C2=C(O)C(=O)N(c3nccs3)C2c2ccc(Cl)cc2)cc1` (stereo not shown): 1.67%; for `COc1cccc(CNCc2ccccc2C(F)(F)F)c1OC`: 2.22%; for `Cc1ccc2c(c1)c1c(n2CC(O)CNCc2ccccc2)C(=O)CCC1` (stereo not shown): 1.96%.
For the compound `CC1=C(C(=O)Nc2ccccc2C)C(c2ccc(F)cc2)NC(=O)N1` (stereo not shown), the “% Inhibition @ 10 uM” value was -1.22%.
With `CCC/N=C/c1sc2ccc(OCC)cc2c1O`, the “% Inhibition @ 10 uM” value is 2.01%.
The same measure for `O=C(Cn1nnc2sc3c(c2c1=O)CCCC3)c1cccs1`: 5.54%; for `CCOc1ccc(CNC(=O)c2cc3occc3n2C)cc1`: 1.72%; for `O=S(=O)(CCc1nc2ccccc2[nH]1)c1ccc(Br)cc1`: -1.49%.
The same measure for `COc1ccc(-c2ccc(C3C(C#N)=C(N)Oc4[nH]nc(C)c43)o2)cc1` (stereo not shown): 3.91%; for `CCCOc1ccc(-c2nc(CN3CCC(C(=O)NCCC(C)C)CC3)c(C)o2)cc1`: 1.56%.
The same measure for `C/N=C1\SC(CC(=O)Nc2ccc(OC(F)F)cc2)C(=O)N1C` (stereo not shown): -0.478%.
